Data taken from the supplement of paper PMC8728848.
Some of the results follow.

Tests used:
Assay in all cases: glycan array binding signal (z-score within array); higher = stronger binding
Details in all cases: glycan notation: IUPAC condensed, linker removed
[1] = target: Gal(b1-4)GlcNAc(b1-2)Man(a1-3)[Gal(b1-4)GlcNAc(b1-2)Man(a1-6)]Man(b1-4)GlcNAc(b1-4)GlcNAc
How it was run: (§1)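 Columns mapping to the same glycan were averaged after glycan names were converted to IUPAC-condensed notation. The data come from 3228 arrays in the Consortium for Functional Glycomics database, limited to those with an available protein sequence. Binding is reported as a within-array Z-score averaged across arrays of one protein sequence and across linkers.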

[2] = target: Gal(b1-4)GlcNAc(b1-2)Man(a1-3)[Gal(b1-4)GlcNAc(b1-2)Man(a1-6)]Man(b1-4)GlcNAc(b1-4)[Fuc(a1-6)]GlcNAc
How it was run: as §1

[3] = target: Gal(b1-4)GlcNAc(b1-2)Man(a1-3)[Gal(b1-4)GlcNAc(b1-2)Man(a1-6)][Gal(b1-4)GlcNAc(b1-4)]Man(b1-4)GlcNAc(b1-4)[Fuc(a1-6)]GlcNAc
How it was run: as §1

[4] = target: Gal(b1-4)GlcNAc(b1-2)Man(a1-3)[Gal(b1-4)GlcNAc(b1-2)Man(a1-6)][GlcNAc(b1-4)]Man(b1-4)GlcNAc(b1-4)[Fuc(a1-6)]GlcNAc
How it was run: as §1

[5] = target: Gal(b1-4)GlcNAc(b1-2)Man(a1-3)[GlcNAc(b1-2)Man(a1-6)]Man(b1-4)GlcNAc(b1-4)GlcNAc
How it was run: as §1

[6] = target: Gal(b1-4)GlcNAc(b1-2)Man(a1-3)[GlcNAc(b1-4)][Gal(b1-4)GlcNAc(b1-2)Man(a1-6)]Man(b1-4)GlcNAc(b1-4)GlcNAc
How it was run: as §1

[7] = target: Gal(b1-4)GlcNAc(b1-2)Man(a1-3)[Man(a1-6)]Man(b1-4)GlcNAc(b1-4)GlcNAc
How it was run: as §1

[8] = target: Gal(b1-4)GlcNAc(b1-2)Man(a1-6)Man(b1-4)GlcNAc(b1-4)GlcNAc
How it was run: as §1

[9] = target: Gal(b1-4)GlcNAc(b1-2)Man(a1-6)[GlcNAc(b1-2)Man(a1-3)]Man(b1-4)GlcNAc(b1-4)GlcNAc
How it was run: as §1

[10] = target: Gal(b1-4)GlcNAc(b1-2)Man(a1-6)[Man(a1-3)]Man(b1-4)GlcNAc(b1-4)GlcNAc
How it was run: as §1

[11] = target: Gal(b1-4)GlcNAc(b1-2)[Gal(b1-4)GlcNAc(b1-4)]Man(a1-3)[Gal(b1-4)GlcNAc(b1-2)Man(a1-6)]Man(b1-4)GlcNAc(b1-4)GlcNAc
How it was run: as §1

[12] = target: Gal(b1-4)GlcNAc(b1-2)[Gal(b1-4)GlcNAc(b1-4)]Man(a1-3)[Gal(b1-4)GlcNAc(b1-2)[Gal(b1-4)GlcNAc(b1-6)]Man(a1-6)]Man(b1-4)GlcNAc(b1-4)GlcNAc
How it was run: as §1

[13] = target: Gal(b1-4)GlcNAc(b1-2)[Gal(b1-4)GlcNAc(b1-4)]Man(a1-3)[GlcNAc(b1-4)][Gal(b1-4)GlcNAc(b1-2)Man(a1-6)]Man(b1-4)GlcNAc(b1-4)GlcNAc
How it was run: as §1

[14] = target: Gal(b1-4)GlcNAc(b1-2)[Gal(b1-4)GlcNAc(b1-4)]Man(a1-3)[GlcNAc(b1-4)][Gal(b1-4)GlcNAc(b1-2)[Gal(b1-4)GlcNAc(b1-6)]Man(a1-6)]Man(b1-4)GlcNAc(b1-4)GlcNAc
How it was run: as §1

[15] = target: Gal(b1-4)GlcNAc(b1-2)[Gal(b1-4)GlcNAc(b1-6)]Man(a1-6)[Gal(b1-4)GlcNAc(b1-2)Man(a1-3)]Man(b1-4)GlcNAc(b1-4)GlcNAc
How it was run: as §1

[16] = target: Gal(b1-4)GlcNAc(b1-2)[Gal(b1-4)GlcNAc(b1-6)]Man(a1-6)[Gal(b1-4)GlcNAc(b1-2)Man(a1-3)]Man(b1-4)GlcNAc(b1-4)[Fuc(a1-6)]GlcNAc
How it was run: as §1

[17] = target: Gal(b1-4)GlcNAc(b1-2)[Gal(b1-4)GlcNAc(b1-6)]Man(a1-6)[GlcNAc(b1-4)][Gal(b1-4)GlcNAc(b1-2)Man(a1-3)]Man(b1-4)GlcNAc(b1-4)GlcNAc
How it was run: as §1

[18] = target: Gal(b1-4)GlcNAc(b1-2)[Gal(b1-4)GlcNAc(b1-6)]Man(a1-6)[GlcNAc(b1-4)][Gal(b1-4)GlcNAc(b1-2)[Gal(b1-4)GlcNAc(b1-4)]Man(a1-3)]Man(b1-4)GlcNAc(b1-4)[Fuc(a1-6)]GlcNAc
How it was run: as §1

[19] = target: Gal(b1-4)GlcNAc(b1-3)Gal(b1-3)GalNAc
How it was run: as §1

B1: CC1G-11630 (Coprinopsis cinerea), A8P462 (protein)
chain: MTTEAKIKLKAVVYWELVFDYDNSSNTGEITQSYTVKISQTSTRSTFASEVSTTTIDTLTKNNQEVDVGASYGAISANVSASWEHSEEVNNMLEKTTQTSTEDTYTVETEETRSYTIGPGGMLSLFQKHFSGPGMHVAFDVFTTDLELAKERTEIDIDVDVEAIRFVREIRVVYTDIMSEAPGDHVREINGKNPDINYGFNGKFVWLVPEQTRKTAQALTNVEFVSQAESDDRYWDLAAGAGGSNRYLIPVYDTNNKDKIYELALWRSDSYITHDKVKAAGWSGTTGDINSGRGGTYLNLVWKTRHAY
glycan array binding signal (z-score) [1]: -0.378 | glycan array binding signal (z-score) [2]: -0.324 | glycan array binding signal (z-score) [3]: -0.593 | glycan array binding signal (z-score) [4]: -0.467 | glycan array binding signal (z-score) [5]: -0.5 | glycan array binding signal (z-score) [6]: -0.354 | glycan array binding signal (z-score) [7]: -0.035 | glycan array binding signal (z-score) [8]: -0.208 | glycan array binding signal (z-score) [9]: -0.325 | glycan array binding signal (z-score) [10]: -0.474 | glycan array binding signal (z-score) [11]: -0.738 | glycan array binding signal (z-score) [12]: -0.449 | glycan array binding signal (z-score) [13]: -0.074 | glycan array binding signal (z-score) [14]: 0.277 | glycan array binding signal (z-score) [15]: 0.272 | glycan array binding signal (z-score) [16]: -0.458 | glycan array binding signal (z-score) [17]: -0.647 | glycan array binding signal (z-score) [18]: -0.51 | glycan array binding signal (z-score) [19]: -0.343
